In one assay the test system is HSkMC. The assay is described as follows: cytotoxicity call (relative viability < 0.9). Particulars: 10 µM.
A further assay relates to HepG2. Kind of assay: cytotoxicity call (relative viability < 0.9). The settings on record: 10 µM.
The next assay has as its system S. aureus RN4220. The assay is described as follows: growth inhibition call (relative growth <= 0.2). The settings on record: 50 µM.

This note sets out measurements from the antibiotic and cytotoxicity screens of Wong et al. (2023).

The other results are listed elsewhere or left out.

Turning to `COc1ccc(CN(C)C[C@H]2Oc3ccc(NC(=O)Cn4cnnn4)cc3CC(=O)N([C@@H](C)CO)C[C@H]2C)cc1`, the cytotoxicity call in the assay with HSkMC and in the assay with HepG2 was “inactive” throughout. In addition, the growth inhibition call in the assay on S. aureus RN4220 was “inactive”.
Take `CC(C)NC(=O)Nc1cccc2c1O[C@@H](CN(C)Cc1ccc(C(=O)O)cc1)[C@@H](C)CN([C@H](C)CO)C2=O`: the cytotoxicity call with HSkMC and in the assay on HepG2 was “inactive” each time. Besides, the growth inhibition call in the assay with S. aureus RN4220 was “inactive”.
In the case of `C[C@@H]1CN([C@H](C)CO)C(=O)c2cc(NC(=O)NC3CCCCC3)ccc2O[C@@H](C)CCCCO[C@H]1CN(C)C(=O)Nc1ccc(F)cc1`, the cytotoxicity call in the assay on HSkMC and in the assay with HepG2 was “inactive” throughout. Also, in the assay on S. aureus RN4220, the growth inhibition call was “inactive”.
For the compound `CC(C)NC(=O)Nc1ccc2c(c1)C(=O)N([C@H](C)CO)C[C@H](C)[C@H](CN(C)Cc1ccc(Oc3ccccc3)cc1)O2`, the cytotoxicity call with HSkMC and with HepG2 was “inactive” each time. Besides, the growth inhibition call in the assay on S. aureus RN4220 is “inactive”.
On to `C[C@@H]1CN([C@@H](C)CO)C(=O)c2cc(-c3cccc(C(=O)N(C)C)c3)cnc2O[C@@H]1CN(C)S(=O)(=O)c1cccc(F)c1`, for which the cytotoxicity call with HSkMC and in the assay with HepG2 was “inactive” each time. Besides, the growth inhibition call in the assay on S. aureus RN4220 was “inactive”.
`O=C(C[C@@H]1C[C@H]2c3cc(NC(=O)NC4CCCC4)ccc3O[C@H]2[C@H](CO)O1)NCc1ccc(-c2ccccc2)cc1`: the cytotoxicity call in the assay with HSkMC and in the assay with HepG2 was “active” in each case. Also, the growth inhibition call in the assay with S. aureus RN4220 is “inactive”.
Consider `C[C@@H]1CCCCO[C@@H](CN(C)C(=O)Nc2cccc3ccccc23)[C@H](C)CN([C@H](C)CO)C(=O)c2cc(NC(=O)Nc3ccccc3)ccc2O1`, for which the cytotoxicity call with HSkMC and with HepG2 was “inactive” in each case. For the same compound, the growth inhibition call with S. aureus RN4220 was “inactive”.
With `C[C@@H]1CN([C@H](C)CO)S(=O)(=O)c2ccc(C#CC3CCCCC3)cc2O[C@H]1CN(C)C(=O)Cc1ccncc1`, the cytotoxicity call in the assay on HSkMC and in the assay on HepG2 was “inactive” each time. The growth inhibition call in the assay on S. aureus RN4220 was “inactive”.
`Cc1ccc(S(=O)(=O)Nc2cccc3c2O[C@H](CN(C)CC2CC2)[C@@H](C)CN([C@H](C)CO)C3=O)cc1`: the cytotoxicity call in the assay with HSkMC and in the assay on HepG2 was “inactive” throughout. Further, the growth inhibition call in the assay on S. aureus RN4220 is “inactive”.
Consider `COc1ccc(S(=O)(=O)N(C)C[C@H]2Oc3c(NC(=O)C4CC4)cccc3C(=O)N([C@@H](C)CO)C[C@H]2C)cc1`, for which the cytotoxicity call with HSkMC and in the assay on HepG2 was “inactive” throughout. In the assay on S. aureus RN4220, the growth inhibition call is “inactive”.
With `COc1cccc(CN(C)C[C@H]2OCc3ccccc3-c3c(n(C)c4ccccc34)C(=O)N([C@H](C)CO)C[C@H]2C)c1`, the cytotoxicity call in the assay with HSkMC and in the assay on HepG2 was “inactive” in each case. Further, the growth inhibition call in the assay with S. aureus RN4220 is “inactive”.
On to `O=C(C[C@H]1CC[C@@H](NS(=O)(=O)c2ccc(F)cc2)[C@@H](CO)O1)N1CCC(Cc2ccccc2)CC1`, for which the cytotoxicity call in the assay with HSkMC and in the assay on HepG2 was “inactive” in each case. Further, the growth inhibition call with S. aureus RN4220 is “inactive”.
For `CC(C)NC(=O)Nc1ccc2c(c1)C(=O)N(C)[C@H]1CC[C@@H](CC(=O)NCc3ccc(F)cc3)O[C@@H]1CO2`, the cytotoxicity call in the assay on HSkMC and in the assay with HepG2 was “inactive” each time. In the assay with S. aureus RN4220, the growth inhibition call was “inactive”.
For `C[C@@H]1CN([C@@H](C)CO)C(=O)Cc2cc(NC(=O)C3CCCCC3)ccc2O[C@H]1CN(C)Cc1ccc(C(F)(F)F)cc1`, the cytotoxicity call in the assay with HSkMC and in the assay with HepG2 was “inactive” in each case. Also, the growth inhibition call with S. aureus RN4220 was “inactive”.
In the case of `O=C1O[C@H](c2ccccc2)[C@H](c2ccccc2)N2[C@H]1[C@@H](C(=O)N1CCCCCCC1)[C@]1(C(=O)Nc3ccc(C#CC4=CCCCC4)cc31)[C@H]2c1ccc(O)cc1`, the cytotoxicity call in the assay on HSkMC and with HepG2 was “inactive” each time. In addition, the growth inhibition call with S. aureus RN4220 was “inactive”.
`COc1cccc(S(=O)(=O)Nc2ccc3c(c2)[C@@H]2C[C@H](CC(=O)N4CCCCC4)O[C@@H](CO)[C@@H]2O3)c1`: the cytotoxicity call in the assay with HSkMC and with HepG2 was “inactive” each time. In addition, in the assay with S. aureus RN4220, the growth inhibition call is “inactive”.
Consider `COc1ccc(S(=O)(=O)N(C)C[C@@H]2OCCCC[C@@H](C)Oc3ccc(NC(=O)Nc4ccc5c(c4)OCO5)cc3C(=O)N([C@H](C)CO)C[C@@H]2C)cc1`, for which the cytotoxicity call with HSkMC and in the assay on HepG2 was “inactive” throughout. Also, the growth inhibition call with S. aureus RN4220 was “inactive”.
For `NNS(=O)(=O)c1ccc(Cl)cc1`, the cytotoxicity call with HSkMC and in the assay on HepG2 was “inactive” each time. Further, in the assay on S. aureus RN4220, the growth inhibition call is “inactive”.
`O=c1[nH]c2cc(C(F)(F)F)c(N3CCOCC3)cc2n(CP(=O)(O)O)c1=O`: the cytotoxicity call with HSkMC and with HepG2 was “inactive” each time. Besides, the growth inhibition call with S. aureus RN4220 was “inactive”.
Take `C/C=C/c1ccc2c(c1)O[C@@H](CN(C)S(=O)(=O)c1ccc(F)cc1)[C@@H](C)CN([C@H](C)CO)S2(=O)=O`: the cytotoxicity call in the assay on HSkMC and in the assay on HepG2 was “inactive” in each case. Moreover, the growth inhibition call with S. aureus RN4220 was “inactive”.
Take `C[C@H](CO)N1C[C@H](C)[C@@H](CN(C)C(=O)Nc2cccc3ccccc23)Oc2ccc(NC(=O)Nc3ccccc3)cc2CC1=O`: the cytotoxicity call with HSkMC was “active”. Also, in the assay on HepG2, the cytotoxicity call is “inactive”. The growth inhibition call with S. aureus RN4220 is “inactive”.
As for `C[C@H]1CN([C@@H](C)CO)C(=O)c2c(c3ccccc3n2C)-c2ccccc2CO[C@H]1CN(C)C(=O)Nc1cccc(Cl)c1Cl`, the cytotoxicity call in the assay on HSkMC and with HepG2 was “inactive” in each case. Moreover, the growth inhibition call in the assay on S. aureus RN4220 was “inactive”.
Turning to `O=C(C[C@H]1C[C@H]2c3cc(NS(=O)(=O)c4ccc(F)cc4)ccc3O[C@H]2[C@H](CO)O1)NCCN1CCCCC1`, the cytotoxicity call in the assay with HSkMC and in the assay with HepG2 was “inactive” throughout. In addition, the growth inhibition call with S. aureus RN4220 is “inactive”.
In the case of `Cc1ccc(S(=O)(=O)Nc2cccc3c2O[C@H](CN(C)S(=O)(=O)c2cn(C)cn2)[C@@H](C)CN([C@H](C)CO)C3=O)cc1`, the cytotoxicity call in the assay with HSkMC and in the assay with HepG2 was “inactive” each time. The growth inhibition call with S. aureus RN4220 was “inactive”.
For the compound `Cc1noc(C)c1S(=O)(=O)Nc1ccc2c(c1)C(=O)N([C@H](C)CO)C[C@@H](C)[C@H](CN(C)Cc1ccc(Cl)c(Cl)c1)OCCCC[C@@H](C)O2`, the cytotoxicity call in the assay on HSkMC (human skeletal muscle cells) and in the assay on HepG2 was “inactive” in each case. The growth inhibition call in the assay with S. aureus RN4220 was “inactive”.
